# In PubChem BioAssay AID1508642 (National Center for Advancing Translational Sciences (NCATS), 2021):
# The whole screen tested about 43,000 compounds, of which about 200 (0.47%) were called active. Another 12% or so got no clear call; they are omitted. The call rests on the fitted dose curve; in most records, active means well fitted cell-killing curve with a large enough effect; inconclusive means small, poorly fitted or top-dose-only effect, or effect the other way; inactive means flat fitted curve, though single readings scatter. The list shows a part of the results.
# Assay: Cell viability qHTS assay in S16 Pmp22-F2sN cells; further: nearly all actives have a fitted effect of over 65% in size
# Details: S16 Pmp22-F2sN Schwann cells viability, CellTiter-Glo, 24 h; series mostly up to 57.5 µM; activity change, negative = cytotoxicity: at the top concentration
# Outline: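 Used to flag compounds lowering reporter output through toxicity, this quantitative HTS measures ATP-based CellTiter-Glo luminescence in S16 Pmp22-F2sN Schwann cells after 24 h compound exposure at 37C.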
# On the % scale 0 is the no-effect control and ±100 the full control effect.
row,Structure (SMILES),"activity change, negative = cytotoxicity"
1,COc1ccc(CCNC(=O)CSc2nc3ccccc3nc2Cc2ccc(C)cc2)cc1OC,inactive: 19.4%
2,COc1ccccc1CNC(=O)c1nn(-c2ccc(C)cc2)c(=O)c2c1c1ccccc1n2C,inactive: 48.9%
3,Cc1cccc(CSc2ncc(Cl)c(C(=O)Nc3sc4c(c3C#N)CCCC4)n2)c1,inactive: -0.562%
4,O=C(COc1ccc(F)cc1)NC1CC(=O)N(c2ccc3c(c2)OCCO3)C1 (configuration not stated),inactive: -2.14%
5,COc1cccc(NC(=O)C2CCN(c3cc(C)nc4c(-c5ccc(Cl)cc5)c(C)nn34)CC2)c1,inactive: -2.74%
6,Cc1ccc(-c2nn3c(=O)cc(CN4CCN(S(=O)(=O)c5ccc(Cl)cc5)CC4)nc3s2)cc1,inactive: -13.2%
7,COc1ccc(CNC(=O)c2ccc3c(c2)CCN3S(=O)(=O)c2ccc(Cl)cc2)cc1,inactive: -0.893%
8,CCc1ccccc1-n1c2c(cc(-c3nc(-c4ccc(Cl)cc4)cs3)c1=O)C(=O)CC(C)(C)C2,inactive: -3.57%
9,COc1ccc(Cc2nc3ccc(C(=O)NCCc4ccccc4)cc3o2)cc1,inactive: -2.84%
10,CCOC(=O)c1c(C)[nH]c(C)c1S(=O)(=O)N1CCN(c2ccc(Cl)cc2)CC1,inactive: -23.9%
11,CCOc1ccc(OCC)c(NS(=O)(=O)c2ccc3[nH]c(=O)ccc3c2)c1,inactive: 11.8%
12,CC(=O)Nc1ccc(NC(=O)Cn2c(=O)ccc3cc(S(=O)(=O)N4CCC(C)CC4)ccc32)cc1,inactive: -6.56%
13,CC(NC(=O)C1=Cc2ccccc2OC1)c1ccccc1 (configuration not stated),inactive: -9.32%
14,COc1cc(OC)cc(-c2cc3nc(C)c(CCC(=O)Nc4ccc(F)c(Cl)c4)c(C)n3n2)c1,inactive: 3.01%
15,Cn1c(=O)cc(OCC(=O)N2CCN(c3ccc(F)cc3)CC2)c2ccccc21,inactive: 4.98%
16,CCOc1ccccc1Nc1ncnc2c1c(-c1ccccc1)cn2-c1ccc(OC)cc1,inactive: -8.94%
17,CCOCN(C(=O)Cn1c(CC(C)C)nc2ccccc21)c1c(C)cccc1CC,inactive: -1.27%
18,CC(C)c1ccc(NC(=O)C(NS(=O)(=O)c2ccc3c(c2)CCC(=O)N3)c2ccccc2)cc1 (configuration not stated),inactive: -4.65%
19,Cc1ccc(-c2cn3cccnc3n2)cc1NC(=O)Cc1ccccc1,inactive: -1.23%
20,O=S(=O)(c1ccccc1)c1nc(-c2ccccc2)oc1N1CCN(c2cccc(Cl)c2)CC1,inactive: 15.5%
21,O=C(CSCc1cnn(-c2ccccc2)c1-n1cccc1)NCc1ccccc1Br,inactive: -2.58%
22,CCc1ccc(NC(=O)COCc2cc(-c3ccc(F)cc3)on2)cc1,inactive: -3.67%
23,Cc1cc(C)cc(NC(=O)c2ncn(-c3ccccc3)n2)c1,inactive: -1.64%
24,Cc1c(Cl)cccc1NC(=O)C(C)N(c1ccccc1)S(C)(=O)=O (configuration not stated),inactive: 6.16%
25,COc1cccc(-c2nc(SCC(=O)NC3CCCC3)c(-c3ccc(F)cc3)[nH]2)c1,inactive: -24.6%

row,Structure (SMILES),"activity change, negative = cytotoxicity"
1,COc1ccc(NC(=O)CN(c2ccccc2OC)S(C)(=O)=O)c(OC)c1,inactive: 14%
2,COc1cc(NC(=O)CCc2c(C)nc3c4c(C)cc(C)nc4nn3c2C)cc(OC)c1,inactive: -0.503%
3,Cc1cc(C)cc(NC(=O)CCCn2nc(C)c3c(C)n(-c4ccccc4)nc3c2=O)c1,inactive: 10.4%
4,COc1cc(-c2nnc(SCC(=O)Oc3ccc(C)cc3C)o2)cc(OC)c1OC,inactive: 6.02%
5,CCOC(=O)C1(C)C=C(Nc2cccc(C)c2)C(=O)N1c1ccccc1 (configuration not stated),inactive: 4.91%
6,CCOc1ccccc1NC(=O)C1=C(C)Nc2ncnn2C1c1ccccn1 (configuration not stated),inactive: 4.74%
7,CCOC(=O)CCn1cnc2onc(-c3ccccc3Cl)c2c1=O,inactive: 10.6%
8,COC(=O)c1ccc(Nc2ncnc3c2cnn3-c2ccccc2)cc1,inactive: 0.876%
9,COc1cc(Cl)c(C)cc1NS(=O)(=O)c1c(C)nc2sccn2c1=O,inactive: -19.8%
10,COc1ccc(C2=C(C)C(=O)N(Cc3ccc(C(=O)Nc4ccc(C)c(C)c4)cc3)S2(=O)=O)cc1,inactive: 15.4%
11,Cc1cccc(-n2ncc3c(N4CCN(CCO)CC4)ncnc32)c1,inactive: 8.77%
12,Cc1ccc(Cl)cc1NC(=O)N1CCc2cc(S(=O)(=O)N3CCC(C)CC3)ccc21,inactive: 7.11%
13,O=C(Nc1nnc2n1CCS2)c1ccccc1,inactive: -2.69%
14,COC(=O)c1ccc2c(=O)n(CCCCCC(=O)NC(C)C)c(=O)[nH]c2c1,inactive: -19.8%
15,Cc1cc(C)cc(NC(=O)CCS(=O)(=O)c2ccc3c(c2)oc(=O)n3C)c1,inactive: -2.88%
16,CCOc1ccc(C(=O)Nc2ccc3nc(SCC(=O)N(C)c4ccccc4)sc3c2)cc1,inactive: -33.9%
17,CCOC(=O)c1cc(-c2ccc(OC)cc2)n(CCC(=O)Nc2ccc(OC)cc2OC)c1C,inactive: -10.8%
18,CCOc1ccc(CNC(=O)C2CCN(Cc3cc4ccccc4n3Cc3ccccc3C)CC2)cc1,inactive: 1.37%
19,CC(C)CC(C(=O)NCCc1ccccc1)N1Cc2ccccc2C1=O (configuration not stated),inactive: -11.5%
20,CCc1ccc(NC(=O)CCCn2nc(C)c3c(C)n(-c4ccccc4)nc3c2=O)cc1,inactive: -2.47%
21,CCCSc1nnc2n(-c3ccc(OC)cc3)c(=O)c3c4c(sc3n12)COC(C(C)C)C4 (configuration not stated),inactive: 21%
22,Cc1nn(C(C)(C)C)c(OC(=O)c2cccc(F)c2)c1Sc1ccccc1,inactive: -17.5%
23,Cc1c(CNC2CCCCCC2)c(C(=O)O)c(C)n1Cc1ccc(F)cc1,inactive: 14.7%
24,CCc1ccc(CN(Cc2ccco2)C(=O)COc2ccc(Cl)cc2C)cc1,inactive: -12.7%
25,CC(=O)Nc1ccc2nc(SCCOc3ccccc3)sc2c1,inactive: 13.2%

row,Structure (SMILES),"activity change, negative = cytotoxicity"
1,Cc1ccc(NC(=O)C(=O)NCCCN2CCOCC2)cc1C,inactive: 9.94%
2,Cc1cccc(NC(=O)C2(C)Cc3ccccc3C(=O)O2)c1 (configuration not stated),inactive: 11.9%
3,Cc1ccc2nc(N(Cc3cccnc3)C(=O)c3cccs3)sc2c1,inactive: -18.7%
4,CCCn1c(CCC(=O)Nc2cccc(CC)c2)nc2cccnc21,inactive: 6.7%
5,COc1ccc(-n2c(=O)c3sc4ccccc4c3n(CC(=O)NCc3ccccc3)c2=O)cc1,inactive: -0.249%
6,Cc1ccccc1CNC(=O)c1ccc(CS(=O)Cc2ccc(Cl)cc2)o1 (configuration not stated),inactive: 14%
7,O=[N+]([O-])c1cc(-c2nc(-c3ccccc3)no2)ccc1NCCc1ccccc1,inactive: -6.03%
8,CCOc1ccc(N2CC(c3nc4ccccc4n3Cc3cccc(C)c3)CC2=O)cc1 (configuration not stated),inactive: -3.11%
9,CCc1nc2c(cnn2-c2ccc(Cl)cc2)c(=O)n1-c1ccc(OC)c(Cl)c1,inactive: 5.12%
10,Cc1ccc(OCC(=O)Nc2cc(-c3cccc(C)c3)nn2-c2ccccc2)cc1,inactive: 13.4%
11,CCOc1ccccc1C(=O)Nc1cc2c(cc1N1CCOCC1)n(C)c(=O)n2C,inactive: -5.94%
12,Cc1ccc(CCNC(=O)c2ccc3c(c2)c(C)c(C)n3Cc2ccccc2)cc1,inactive: -22.8%
13,O=C(Nc1cccc(F)c1)[C@@H](c1ccccc1)N1Cc2ccccc2C1=O,inactive: 1.04%
14,COc1ccc(Cl)cc1NC(=O)CSc1nc(-c2ccccc2)c2ccccc2n1,inactive: 0.313%
15,CCn1c(CC2C(=O)N(C)c3ccccc32)nc2ccccc2c1=O (configuration not stated),inactive: 3.24%
16,COc1ccc(NC(=O)CCN2CCN(CCO)CC2)cc1,inactive: -7.46%
17,CCN(c1cc(C)cc(C)c1)S(=O)(=O)c1nnc(NC(=O)c2ccco2)s1,inactive: -4.09%
18,CCOc1ccc(C(=O)Nc2ccc(-c3nc4ccccc4s3)c(C)c2)cc1OCC,inactive: 8.03%
19,Cc1ccc(NC(=O)Cn2nnc(-c3nc(-c4ccc(Cl)cc4)no3)c2N)cc1C,inactive: 3.6%
20,Cc1nc2c(C(=O)NCCc3ccccc3)c[nH]n2c(=O)c1Cc1ccc(F)cc1Cl,inactive: 8.8%
21,CCCSc1ncc(Cl)c(C(=O)Nc2c(C(=O)c3ccc(F)cc3)oc3ccccc23)n1,inactive: 15.6%
22,COc1ccccc1N1CCN(C(=O)Cn2c(=O)n3nc(-c4cccc(C)c4)nc3c3ccccc32)CC1,inactive: 9.53%
23,COc1ccc(CCNC(=O)c2c(C)nn(-c3ccc(F)cc3)c2-n2cccc2)c(OC)c1OC,inactive: 10.3%
24,CC(C)CSc1ccccc1NC(=O)c1sc2nc(-c3ccncc3)ccc2c1N,inactive: -1.02%
25,CCOC(=O)c1c(NC(=O)C(C)Oc2ccc(Cl)c(C)c2)sc2c1CCCC2 (configuration not stated),inactive: 5.2%

row,Structure (SMILES),"activity change, negative = cytotoxicity"
1,O=C(Cn1cc(S(=O)(=O)Cc2ccccc2F)c2ccccc21)NCc1ccccc1Cl,inactive: -6.28%
2,Cc1nn2c(=O)cc(COC(=O)c3ccc(NC(=O)c4cccs4)cc3)nc2s1,inactive: -6.26%
3,CCN(C(=O)Cn1nc(Cc2ccncc2)c2ccccc2c1=O)c1cccc(C(F)(F)F)c1,inactive: 8.09%
4,CC(C)Cn1c(=O)c2ccccc2n2c(CCC(=O)Nc3ccc(F)c(F)c3)nnc12,inactive: 3.93%
5,Cc1ccc(S(=O)(=O)N2CCC(C(=O)Nc3ccc(Oc4ccccc4)cc3)CC2)cc1,inactive: -2.16%
6,COc1ccccc1N1CCN(S(=O)(=O)c2ccc(-c3cnc(C4CC4)o3)cc2)CC1,inactive: 8.34%
7,Cc1cc(Cl)ccc1NC(=O)c1cc2ccccn2n1,inactive: 10.9%
8,Cc1ccc(CNC(=O)CSC2=Nc3ccccc3C3=NC(C)C(=O)N23)cc1 (configuration not stated),inactive: 1.63%
9,Cc1ccc2occ(CC(=O)N3CCN(c4cccc(Cl)c4)CC3)c2c1,inactive: -16.7%
10,CCOc1ccccc1NC(=O)CN1CCN(S(=O)(=O)c2ccc(Br)cc2)CC1,inactive: -1.77%
11,CCS(=O)(=O)N1CCc2cc(C(=O)Nc3ccc(OC)cc3OC)ccc21,inactive: 6.79%
12,CCC1CCCCN1Cc1cn2c(-c3ccc(Br)cc3)nnc2s1 (configuration not stated),inactive: 13.1%
13,CC(=O)c1cccc(NC(=O)c2nc(-c3ccccc3)n(-c3cccc(C)c3)n2)c1,inactive: -21.2%
14,COc1c(Cl)cc(Cl)cc1CNCCSc1nnnn1C,inactive: -0.282%
15,O=C(Nc1nc2n(n1)C(c1ccc(F)cc1)C=C(c1ccccc1)N2)c1cccc([N+](=O)[O-])c1 (configuration not stated),inactive: -22.3%
16,CCC(C)NC(=O)CSc1nc2cc3c(cc2c(=O)n1CCCCCC(=O)NCc1ccc(OC)cc1)OCO3 (configuration not stated),inactive: 3.94%
17,Cc1cccc(C(=O)Nc2cccc(OCc3cc(=O)n4ccccc4n3)c2)c1,inactive: 12.7%
18,CCc1cccc(NC(=O)CCS(=O)(=O)c2cc3c4c(c2)CCN4C(=O)CC3)c1,inactive: -29.8%
19,Cc1c(Cl)cccc1-n1nc(C)c2c(C)cc(=O)n(CC(=O)NCc3ccccc3)c21,inactive: -2.92%
20,COc1cc2c(cc1OC)C(COc1ccccc1OC)N(C(=O)c1ccccc1OC)CC2 (configuration not stated),inactive: -8.29%
21,Cc1cc(C)c(NC(=O)Cn2c(=O)n(Cc3ccccc3)c(=O)c3c(C)c(C(=O)N(C)C)sc32)c(C)c1,inactive: 2.91%
22,COc1cc2c(=O)c(S(=O)(=O)c3ccccc3)cn(CC(=O)Nc3ccccc3C)c2cc1OC,inactive: 18.7%
